# Read counts are not given, so values of variants with three or more changes are uncertain.
# B1: CPEB3 Ribozyme (parent)
# chain: UAACAGGGGGCCACAGCAGAAGCGUUCACGUCGCAGCCCCUGUCAGAUUCUGGUGAAUCUGCGAAUUCUGCUGUAUAUCUC
# Variants of: B1
# Test: self-cleavage, relative activity (ratio to wild type); higher = more cleavage; in vitro, sequencing
# Summary of the method: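 For each CPEB3 ribozyme variant, relative activity is its cleaved/total read fraction divided by the unmutated ribozyme's. Barcoded error-prone PCR libraries were transcribed by T7 RNA polymerase (5 hours, 37°C) and held in DNase I for 15 min before an EDTA stop, with cleavage occurring throughout. Template-switching reverse transcription and Illumina sequencing were used to read the RNAs. A 5-read minimum applied, and results are the mean of three batches.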
row,Variant,self-cleavage
1,G16U U58C U74A,0.31
2,G16U U74A U80A,1.02
3,C17A A18G U41G A47G,0.09
4,C17A A18U G36A U43C U60A,0.07
5,C17A A20G U41C U51C U78C,0.07
6,C17A A21G U25C A28G,0.42
7,C17A A21G U41C A57G A64G C71G G73A,0.02
8,C17A A28G A45U,0.19
9,C17A A28U C62G,0.08
10,C17A A35G C68A,0.38
11,C17A A45U U49G U51C A56G U72A U76C,0.14
12,C17A A47U U60A,0.11
13,C17A C34G C68G,0.09
14,C17A C38A A57G A64G C71G G73A,0.04
15,C17A G42U A45U A47G,0.04
16,C17A U25C U26C,0.07
17,C17A U25G U26C C40A U48C A65G C81G,0.07
18,C17A U26A C50A U60C A77G U78C,0.05
19,C17A U26C U43C U67C,0.11
20,C17A U31A A35G U43C U67C,0.06
21,C17A U31C A35G U41C A64G U80A,0.15

row,Variant,self-cleavage
1,C17A U31C U58C,0.09
2,C17A U41C C62U,0.13
3,C17A U43C U49C U54C,0.15
4,C17A U43C U49C U54C A75C,0.11
5,C17A U67C U72G U80A,0.11
6,C17G A18C A20U C27U A28G A35G,0.03
7,C17G A18G A20G U31C U49A U54A U72G,0.05
8,C17G A18G A45U U69C U72C,0.18
9,C17G A18G C23U U31A G73A,0.39
10,C17G A18G C34U A45U,0.07
11,C17G A18U U25A U72A A77U,0.07
12,C17G A18U U72A,0.22
13,C17G A20G U26C G53A U60C,0.25
14,C17G A20U A45G U60G C68G,0.05
15,C17G A21G A45U A75U A77U,0.2
16,C17G A21G C29G U31C U69C,0.15
17,C17G A21U U43A U78C,0.33
18,C17G A28U U67C,0.16
19,C17G A35G A47G,1.01
20,C17G A35U U54C U80C,0.05
21,C17G A47G A56G,0.3

row,Variant,self-cleavage
1,C17G A47G U48C,0.3
2,C17G A56U U80C,0.39
3,C17G A64G C71G G73A,0.13
4,C17G C23A U26G,0.22
5,C17G C23G U26A,0.33
6,C17G C23U U26C,0.18
7,C17G C29A U60A U69C,0.08
8,C17G C32U A56G,0.09
9,C17G C32U A75U,0.35
10,C17G C34A G36U,0.05
11,C17G C40U U67C,0.09
12,C17G G30A C68U U69A U78C,0.04
13,C17G G30U A35G,0.2
14,C17G G33A U48C A56G U78C,0.06
15,C17G U25G U26C A35G U67C,0.13
16,C17G U26A A35G U41C G46A,0.06
17,C17G U26C A57G U58C,0.25
18,C17G U26C A57G U67A A77G,0.07
19,C17G U31A U41C A45G C62A U69C A75G,0.09
20,C17G U31C G33U U60A U72C,0.16
21,C17G U66A U80A,0.08

row,Variant,self-cleavage
1,C17G U67C C81G,0.16
2,C17U A18G U31C G46U U49C U66C,0.06
3,C17U A18G U80C,0.45
4,C17U A18U A20C A64G U69C U74C,0.16
5,C17U A18U U48C U51C U72C,0.11
6,C17U A18U U51A U72C U76C,0.24
7,C17U A18U U51C U60A U66C,0.18
8,C17U A18U U51C U72C,0.11
9,C17U A20C A21G A35G U43C A64U,0.04
10,C17U A20C A21G A65G,0.05
11,C17U A20C A28G A47C U49C U51C U80C,0.04
12,C17U A20C U41C A45G U49A A64G U69C,0.02
13,C17U A20G A21G U25C C44A C62U,0.03
14,C17U A20G C38A U41G U43A,0.13
15,C17U A20G U41C A65U,0.4
16,C17U A20G U72C U80C,0.54
17,C17U A20U A45U A64G,0.07
18,C17U A20U A77G,0.15
19,C17U A20U U31C A77G,0.36
20,C17U A21G A35U U72A,0.14
